Test results published in PubChem BioAssay AID360 (National Center for Advancing Translational Sciences (NCATS), 2006).
Out of some 48,000 compounds screened, about 550 (1.1%) were called active. Not shown: some 4% with an inconclusive outcome. No stated cut-off is given here; in the data, active means potency below about 15 µM; inconclusive means mostly about 16 µM to 33 µM; inactive means weaker than that. The list shows a part of the results.

target: Lysosomal acid glucosylceramidase (Homo sapiens) (UniProt P04062); test: Glucocerebrosidase; details: purified enzyme, resorufin glucoside fluorescence (screen aimed at inhibitors), 20 min;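 further: the screen sought inhibitors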
Summary of the method: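 Normal human glucocerebrosidase (0.2 nM final) was assayed with resorufin β-D-glucopyranoside (30 uM final) in 50mM citric acid/KH2PO4, 10mM sodium taurocholate, 0.01% tween-20, pH 5.9. Compounds were titrated; fluorescence (Ex 548, Em 600) read after 20 min at RT.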
Potency means the concentration at half of the fitted maximal effect.

Chain of UniProt P04062 (P04062 whole entry, looked up): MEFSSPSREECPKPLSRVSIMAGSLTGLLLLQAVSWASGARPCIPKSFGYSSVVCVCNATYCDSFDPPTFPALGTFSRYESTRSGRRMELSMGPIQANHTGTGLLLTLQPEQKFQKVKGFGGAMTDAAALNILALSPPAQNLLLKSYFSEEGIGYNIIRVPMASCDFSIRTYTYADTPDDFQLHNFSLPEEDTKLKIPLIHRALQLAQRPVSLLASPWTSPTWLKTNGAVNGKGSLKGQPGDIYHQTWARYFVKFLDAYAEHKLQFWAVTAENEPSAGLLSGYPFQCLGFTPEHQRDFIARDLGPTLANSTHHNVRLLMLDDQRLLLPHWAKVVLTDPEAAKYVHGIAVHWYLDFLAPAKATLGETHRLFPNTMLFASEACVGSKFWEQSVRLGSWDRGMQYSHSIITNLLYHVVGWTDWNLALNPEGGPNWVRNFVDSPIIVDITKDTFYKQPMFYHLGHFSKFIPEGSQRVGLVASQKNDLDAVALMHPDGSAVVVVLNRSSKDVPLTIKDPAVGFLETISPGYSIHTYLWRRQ

Potency, inactive:
S=c1[nH]nc(Cc2c[nH]c3ccccc23)o1 > 76.9 µM
COCc1nnc(NC(=O)CCC2CCCCC2)s1 > 76.9 µM
O=C(O)CCCC(=O)Nc1nc(-c2ccc(F)cc2)cs1 > 76.9 µM
O=C1c2oc3ccc(Cl)cc3c(=O)c2C(c2cccnc2)N1Cc1ccco1 (stereo not drawn) > 76.9 µM
Nc1ccc(-c2ccc(N)cc2C(F)(F)F)c(C(F)(F)F)c1 > 76.9 µM
O=C(c1ccco1)N1CCN(C(=O)N2c3ccccc3Sc3ccccc32)CC1 > 76.9 µM
CC1(C)CNC(=O)c2sc(NC(=O)CN3CCOCC3)nc2C1 > 76.9 µM
CCOCCCNc1nc2c([nH]1)c(=O)n(C)c(=O)n2C > 76.9 µM
C=CCn1c(SCC(=O)Nc2ccc3c(c2)OCO3)nnc1-c1ccccc1O > 76.9 µM
COc1ccccc1N1CCN(C(=O)C2CC=CCC2C(=O)O)CC1 (stereo not drawn) > 76.9 µM
c1ccc2c(c1)OCC(c1nn3c(Cn4nnc5ccccc54)nnc3s1)O2 (stereo not drawn) > 76.9 µM
CC(C(=O)NC1CCCC1)N(Cc1ccc2c(c1)OCO2)C(=O)c1snc(C(N)=O)c1N (stereo not drawn) > 76.9 µM
Cn1c(CNC(=O)Nc2ccccc2)nnc1SCc1ccccc1 > 76.9 µM
c1ccc(COn2nnc3ccccc32)c(COn2nnc3ccccc32)c1 > 76.9 µM
COCCNC(=O)c1c(N)n(-c2cccc(C)c2)c2nc3ccccc3nc12 > 76.9 µM
COc1cccc(C(=O)NCC(=O)N2CCC(C)CC2)c1 > 76.9 µM
Cn1c(NC(=O)c2cccs2)c(-c2cccs2)c(=O)c2ccccc21 > 76.9 µM
CCN(CC)C(=O)CSc1nnc(-c2cnccn2)n1-c1ccc(C)cc1 > 76.9 µM
Cc1cc(C)c2c(n1)nn1c(N3CCOCC3)cc(C)nc21 > 76.9 µM
Cc1ccc(CC(=O)OCCNC(=O)c2cccnc2)cc1 > 76.9 µM
CCn1c(Cc2ccccc2)nnc1SCC(=O)Nc1nccs1 > 76.9 µM
Cc1ccc(N2CC(C(=O)NC3=NCCS3)CC2=O)cc1C (stereo not drawn) > 76.9 µM
CCn1c(C)c(C(C)=O)c(NCc2ccccc2)nc1=S > 76.9 µM
CC(=O)N(CN1C(=O)c2ccccc2C1=O)c1cccc(C)c1 > 76.9 µM
COc1ccc(N2C(=O)C3CCCN3C2c2ccc(C)o2)cc1Cl (stereo not drawn) > 76.9 µM
COc1ccc(C2C(=O)N(C3CCCCC3)CC(=O)N2Cc2ccc3c(c2)OCO3)cc1 (stereo not drawn) > 76.9 µM
CCOC(=O)CNC(=O)CSc1nnc(-c2ccco2)n1N > 76.9 µM
CCC(C(=O)N1CCOCC1)n1c(C(=O)OC)cc2occc21 (stereo not drawn)
COC(=O)CSc1nnc(CNC(=O)Cc2ccccc2)n1-c1ccccc1OC > 76.9 µM
CCCn1c(SCC(=O)c2ccc3c(c2)OCCO3)nc2c1c(=O)n(C)c(=O)n2C > 76.9 µM
CCOC(=O)c1ccc(NS(=O)(=O)c2ccc3c(c2)CCCN3C(C)=O)cc1 > 76.9 µM
Cc1ccc(S(=O)(=O)N2CCN(c3ncnc4c3cnn4-c3ccccc3)CC2)cc1 > 76.9 µM
COCCN1C(=O)c2ccccc2C(C(=O)NCC2CCCO2)C1c1c[nH]c2ccccc12 (stereo not drawn) > 76.9 µM
N#CC1=C(N)Oc2n[nH]c(CSc3ccccc3)c2C12C(=O)Nc1ccccc12 (stereo not drawn) > 76.9 µM
COc1ccc(S(=O)(=O)N2CCC(C(=O)N3CCCC3)CC2)cc1 > 76.9 µM
CN(C)CCN1C(=O)C(=O)/C(=C(/O)c2ccc(OCc3ccccc3)cc2)C1c1ccncc1 (stereo not drawn) > 76.9 µM
O=C(NC1CCCCC1)n1c(=O)oc2cc(S(=O)(=O)N3CCCCC3)ccc21 > 76.9 µM
CC(=O)N1CCc2cc(S(=O)(=O)NCCC(=O)NCCc3ccccc3)ccc21 > 76.9 µM
CCOC(=O)c1c(-n2cnnn2)sc(C)c1C > 76.9 µM
O=C(C1CCCN(S(=O)(=O)c2cccs2)C1)N1CCc2ccccc2C1 (stereo not drawn) > 76.9 µM
O=C(NCc1ccccn1)Nc1cccc(NC(=O)NCc2ccccn2)c1 > 76.9 µM
Cc1cc(NC(=O)c2cc(C)on2)no1 > 76.9 µM
Cc1cc(C(=O)NC(C)c2ccc3c(c2)OCO3)cs1 (stereo not drawn) > 76.9 µM
CC1CCN(c2oc(-c3cccc4ccccc34)nc2C#N)CC1 > 76.9 µM
COc1ccc(OCc2nn3c(-c4cccc(OC)c4)nnc3s2)cc1 > 76.9 µM
CCC(c1nnc(SCC(=O)N2CC3(C)CC2CC(C)(C)C3)o1)N(C)C (stereo not drawn) > 76.9 µM
C=C(C)Cn1c(=O)c(NC(=O)c2ccccc2)c2n(c1=S)CCC2 > 76.9 µM
O=c1c2ccccc2nc(-c2ccco2)n1CCCn1ccnc1 > 76.9 µM
N#Cc1cc(-c2ccccc2)nn1-c1ccccc1 > 76.9 µM
CCOC(=O)C1CCN(C(=O)CCCCn2c(=O)[nH]c3ccccc3c2=O)CC1 > 76.9 µM
CCC1Cc2c(nc3c4c(nc(N5CCOCC5)c(C#N)c24)NC(C)=N3)O1 (stereo not drawn) > 76.9 µM
COc1ccc(NC(=O)Nc2ncn(Cc3cccc(C(F)(F)F)c3)n2)cc1OC > 76.9 µM
O=C1Nc2ccccc2C1(O)Cc1ccncc1 (stereo not drawn) > 76.9 µM
O=C(/N=C1\NC(=O)C(F)(C(F)(F)F)S1)NC1CCCCC1 (stereo not drawn) > 76.9 µM
CC1(C)C(=O)C2(C(=O)NCc3ccccc3)CCC1C2 (stereo not drawn) > 76.9 µM
CC[n+]1cc(-c2ccccc2)nc(N2CCOCC2)n1
CCOC(=O)NC1(C(F)(F)F)NC(=O)N(C2CCCCC2)C1=O (stereo not drawn) > 76.9 µM
COC(=O)CNS(=O)(=O)c1ccc(Cc2ccc(S(=O)(=O)NCC(=O)OC)cc2)cc1 > 76.9 µM
